This note sets out measurements from the RNAGym collection of RNA variant scans (doi:10.7554/elife.90254).

First the molecules themselves.
B1: LINE1-full (parent)
chain: UACGUAGGUGGUUUUCCCCUGAUAGUGCUAAGGGGGCCUGGAAGUUUGGACUGGGCAGAGCUCAACACAGCGUGGCAAAGUGGCUGUGGCUAGACUGCCUCUCUGGAUUCCUCGUCACUCAGCAGGGCAUCUCUGAGAGAAAUGCC

The source gives no read counts; variants with many changes may rest on few reads.

The variants in this data set derive from B1. The experiment in a line: self-cleavage, relative activity (ratio to wild type); higher = more cleavage; in vitro, sequencing; the parent is a self-cleaving ribozyme.
Take CACGUAGGUGGCUUUCCCCUGAUAGAGCUAAGGGGGCCUGGAAGUUUGGACUGGGCAGAGCUCAACACAGCGUGGCAAAGUGGCUGUGGCUAGACUGCCUCUCUGGAUUCCUCGUCACUCAGCAGGGCAUCCCUGAGAGAAAUGCC [U1C U12C U26A U132C]: the self-cleavage was determined as 0.4.

In the case of CACGUAGGUGGUUCUCCCCUGAUAGUGCUAAGGGGGCCUGGAAGUUAGGACUGGGCGGAGCUCAACGCAGCGUGGCAAAGUGGCUGUGGCUAGACUGCCUCUCUGGAAUCCUCGUCACUCAGCAGGGCAUCUCUGAGAGAAAUGCC [U1C U14C U47A A57G A67G U108A], the self-cleavage worked out at 0.

CACGUAGGUGGUCUUCCCCUGAUAGUGCUAAGGGGGCCUGGAAGUUUGGACUGGGCAGAGCUCAACACAGCGUGGCAAAGUGGCUGUGGCUAGACUGCCCCUCUGGAUUCCUCGUCACUCAGCAGGGCAUCUCUGAGAGGAAUGCC [U1C U13C U100C A140G]: the self-cleavage was 2.12.

For the variant CACGUAGGUGGUUCUCCCCUGAUAGUGCUAAGGGGGCCUGGAAGUUUGGACUGGGCAGAGCUCAACACAGCGUGGCAAAGUGGCUGUGGCUAGACUGCCUCUCUGGAUUCCUCGUCACACAGCAGGGCAUCUCUGAGAGAAAUGCC [U1C U14C U119A], the self-cleavage is 1.12.

CACGUAGGCGGUUUUCCCCUGAUAGUGCUAAGGGGACCUGGAAGUUUGGACUGGGCAGAGCUCAACACAGCGUGGCAAAGUGGCUGUGGCUAGACUACCUCUCUGGAUUCCUCGUCACUCUGCAGGGCAUCUCUGAGAGAAAUGCC [U1C U9C G36A G97A A121U]: the self-cleavage came out at 0.14.

With CACGUAGGUGGUUUUCCCCUGAUAGUGCUAAGGGGGCCUGGAAGUUUGGACUGUGCAGAGCUCGACACAGCGUGGCAAAGUGGCUGUGGCUAGACUGCCUCUCUGGAUUCCUCGUCACUCAGCAGGGCAUCUCUGAGAGAAAUGCC [U1C G54U A64G], the self-cleavage was 0.1.

With CACGUAGGUGGUUUUCCCCUGAUAUUGCUAUGGGGGCCUGGAAGUUUGGACUGGGCGGAGCUCAACACAGCGUGGCAAAGUGGCUGUGGCUAGACUGCCUCUCUGGAUUCCUCGUCACUCAGCAGGGCAUCUCUGAGAGAAAUGCC [U1C G25U A31U A57G], the self-cleavage was 0.66.

On to CACGUAGGUGGGUUUCCCCUGAUAGUGCUAAGGGGGCCUGGAAGUUUGGACUGGGCCGAGCUCAACACAGCGUGGCAAAGUGGCUGUGGCUAGACUGCCUCACUGGAUUCCUCGUCACUCAGCAGGGCAUCUCUGAGAGAAAUGCU [U1C U12G A57C U102A C146U], for which the self-cleavage was found to be 0.52.

For CACGUAGGCGGUUUUCCCCUGAUAGUGCUAAGGGGGCCUGGAGGUUUGGACUGGGCAGAGCUCGACACAGCGUGGCAAAGUGGCUGUGGCUAGACUGCCUCUCUGGAUUCCUCGUCACUCAGCAGGGCAUCUCCGAGAGAAAUGCC [U1C U9C A43G A64G U134C], the self-cleavage turned out to be 0.

As for CACGUAGGUGGUUUUCCCCUGAUAGUGCUAAGUGGGCCUGGAAGUUUGGACUGGGCAAAGCUCAACGCAGCGUGGCAAUGUGGCUGUGGCUAGACUGCCUCUCUGGGUACCUCGUCAUUCAGCGGGGCAUCUCUGAGAGAAAUGCC [U1C G33U G58A A67G A79U A107G U109A C118U A124G], the self-cleavage came to 0.03.

As to CACGUAGGUGGUUUUCCCCUAAUAGUGCCAAGGGGGCCUGGAAGUUUGGACUGGGCAGAGCUCAACACAGUGUGGCAAAGUGGCUGUGGCUAGACUGCCUCUCUGGAUUCCUCGUCACUCAGCAGGGCAUCCCUGAGAGAAAUGCC [U1C G21A U29C C71U U132C], the self-cleavage came to 0.99.

For the variant CACGUAGGUGGCUCUCCCCUGAUAGUGCUAAGGGGGCCUGGAAGUUUGGACUGGGCAGAGCUCAACACAGCGUGGCAAAGUGGCUGUGGCUAGACUGCCUCUCUGGAUUCCUCGUCGCUCAGCAGGGCAUCUCUGAGAGAAAUGCC [U1C U12C U14C A117G], the self-cleavage came to 1.25.

As to CACGCAGGUGGUUUUCCCCUGAUAGUGCUAAGGGGGCCUGGAAGUUUGGACUGGGCAGAGCUCAGCACAGCGUGGCAAAGUGGCUGUGGCUAGACUGCCUCUCUGGAUUCCACGUCACUCAGCAGGGCAUCUCUGAGAGAAAUGCC [U1C U5C A65G U112A], the self-cleavage amounted to 0.14.

As for CACGUAGGUGGUUUUCCCCUGAUAGUGCUAAGAGGGCCUGGAAGCUUGGACUGGGCAGAGCUCAACACAGCGUGGCAAAGUGGCUGUGGCUAGACUGCCUCUCUGGAUUCCUCGUCACUCAGCAGGGCAUCUCUGAGAGAAAUGCC [U1C G33A U45C], the self-cleavage came to 0.78.

Regarding CACGUAGGUGGUUUUCCCCUGAUAGUGCUAAAGGGGCCUGGAAGUUUGGACUGGGCAGGGCUCAACACAGCGUGGCAAAGUGGCUGUGGCUGGACUGCCUCUCUGGAUUCCUCGUCACUCAGCAGGGCAUCUCUGAGAGAAAUGCC [U1C G32A A59G A92G], the self-cleavage was 0.47.

For CACGUAGGUGGGUUUCCCCUGAUAGUGCUAAGGGGGCCAGGAAGUUUGGACUGGGCAGAGCUCAACACAGCGUGGCAAAGUGGCUGUGGCUAGACUGCCUCUCUGGAUUCCUCGUCACUCAGCGGGGCAUCUCUGAGUGAGAUGCC [U1C U12G U39A A124G A138U A141G], the self-cleavage was 0.46.

Turning to CACGUAGGUGGUUUUCCCCUGAUAGUGCUAAGGGGGCCUGAAAGUAUGGACUGGGCAGAGCUCAACACAGCGUGGCAAAGUGGCUGUGGCUUGACUGCCUCUCUGGAUUCCUCGUCACUCAGCAGGGCAUCUCUGAGAGAAAUGCC [U1C G41A U46A A92U], the self-cleavage is 0.14.

As to CACGUAGGUGGUUUUCCCCUGAUAGUGCUAAGCGGGCCUGGAAGUUUGGACUGGGUAGAGCUCAACACAGCGUGGCAAAGUGGCUGUGGCUAGACUGCCUCUCUGGAUUCCUCGUCACUCAGCAGGGCAUCUCUGAGAGAAAUACC [U1C G33C C56U G144A], the self-cleavage was found to be 0.4.

Consider CACGUAGGUGGUUUUCCCCUGAUAGUGCUAAGGGGGCCUGGAAGUUUAGACUGGGCAGAGCUCAACACAGCGUGGCAAAGUGGCUGUGGCUAGACUGCCUCUCUGGAUUCCUCGUCACUCAGCAGGGCAUCUCUGAGAGAAAUACC [U1C G48A G144A], for which the self-cleavage was found to be 0.44.

As to CACGUAGGUGGUCCUCCCCUGACAGUGCUAAGGGGGCCUGGAAGUUUGGACUGGGCAGAGCUCAACACAGCGUGGCAAAGUGGCUGUGGCUAGACUGCCUCUCUGGAUUCCUCGUCACUCAGCAGGGCGUCUCUGAGGGAAAUGCC [U1C U13C U14C U23C A129G A138G], the self-cleavage amounted to 0.
